Assay results from the RNAGym collection of RNA variant scans (doi:10.1073/pnas.2313332121).
This sample is rich in variants without activity.

B1: TPR 5TU (parent)
chain: GGAUCUUCUCGAUCUAACAAAAAAGACAAAUCUGCCACAAAGCUUGAGAGCAUCUUCGGAUGCAGAGGCGGCAGCCUUCGGUGGCGCGAUAGCGCCAACGUUCUCAACUAUGACACGCAAAACGCGUGCUCCGUUGAAUGGAGUUUAUCAUG

Variants of: B1
Assay: polymerase ribozyme fitness, log enrichment relative to wild type (log ratio); higher = more active; in vitro selection for triplet polymerase activity
Method in brief: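 After PCR construction and transcription, each subunit's mutant library from a heterodimeric triplet polymerase ribozyme was annealed with a biotinylated primer, the partner subunit and triplets. Incubation was frozen, at −7 °C, and extended constructs were gel-excised, bound to streptavidin beads and amplified by RT-PCR, in one selection round done in triplicate. Fitness is the logarithm of a genotype's enrichment divided by that of the wild type, from inverse-variance-weighted replicate averages of Illumina-sequenced inputs and outputs. The base of the logarithm is 2, and genotypes needed ≥10 input reads and ≥1 read per output.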

Polymerase ribozyme fitness (log ratio), ≤ -4.2:
GGAUCUUCUCGAUCUAACAAAAAAGACAAAUCUGCCACAAAGCUUGAGAGCAUCUUCGGAUGCAGAGCCGGCAGCCUUCGGUGGCGCGAUAGCGCCAACGUUCUCAACUAUGACACGCAAACCGCGUGCUCCGUUGAAUGGAGUUUAUCAUG
GGAUCUUCUCGAUCUAACAAAAAAGACAAAUCUGCCACAAAGCUUGAGAGCAUCUUCGGAUGCAGAGCCGGCAGCCUUCGGUGGCGCGAUAGCGCCAACGUUCUCAACUAUGACACGCAAAACGCGUGCUCCGUUGAAUGGCGUUUAUCAUG
GGAUCUUCUCGAUCUAACAAAAAAGACAAAUCUGCCACAAAGCUUGAGAGCAUCUUCGGAUGCAGAGCCGGCAGCCUUAGGUUGCGCGAUAGCGCCAACGAUCCCAAGUAUGACACGCAAAACGCGUGCUCCGUUGAAUGGGGUUUAUCAUG
GGAUCUUCUCGAUCUAACAAAAAAGACAAAUCUGCCACAAAGCUUGAGAGCAUCUUCGGAUGCAGAGCCGGCAGCCUUUGGUGUCGCGAUAGCGCCAACGUUCUCAACUAUGUCACGCAAAACGCGUGCUCCGUUGAAUGGAGUUUAUCAUG
GGAUCUUCUCGAUCUAACAAAAAAGACAAAUCUGCCACAAAGCUUGAGAGCAUCUUCGGAUGCAGAGCCGGCAGCCUUCGGUGGAGCGAUAGUGCCAACGUUCACAACUAUGACACGCAAAACGCGUGCUCCGUUGAAUGGAGUUUAUCAUG
GGAUCUUCUCGAUCUAACAAAAAAGACAAAUCUGCCACAAAGCUUGAGAGCAUCUUCGGAUGCAGAGCCGGCAGCCUUCGGUGGGGCGAUAGCGCCAACGUUCUCAACUAUGACACGCAAAACGCGUGCUCCGUUCAAUGGAGUUUAUCAUG
GGAUCUUCUCGAUCUAACAAAAAAGACAAAUCUGCCACAAAGCUUGAGAGCAUCUUCGGAUGCAGAGCCGGCAGCCUUCGGUGGUGCGCUAGCGCCAACGUUCUCAACUAUGACACGGAAAACGCGUGCUCCGUUGAAUUGAGUUUAACAUG
GGAUCUUCUCGAUCUAACAAAAAAGACAAAUCUGCCACAAAGCUUGAGAGCAUCUUCGGAUGCAGAGCCGGCAGCCUUCGGUGGCGAGAUAGCGCCAACGUUCUCAACUAUGACACGCAAAACGCGUGCUCCGUUGAAUGGAGUUUAUCAUG
GGAUCUUCUCGAUCUAACAAAAAAGACAAAUCUGCCACAAAGCUUGAGAGCAUCUUCGGAUGCAGAGCCGGCAGCCUUCGGUGGCGGUAUAGCGCCCACGUUCUCAACUAUGACACGCAAAAUGCGUGCUCCGUUGAAUGGAGAUUAUCAUG
GGAUCUUCUCGAUCUAACAAAAAAGACAAAUCUGCCACAAAGCUUGAGAGCAUCUUCGGAUGCAGAGCCGGCAGCCUUCGGUGGCGCGAUAGUGCCAACGUUCUCAACUAUGACACGCAAAACGCGUGCUCCGUUGAAUAGAGUUUGUCAUG
GGAUCUUCUCGAUCUAACAAAAAAGACAAAUCUGCCACAAAGCUUGAGAGCAUCUUCGGAUGCAGAGCCGGCAGCCUUCGGUGGCGCGAUAGCGCGAACGUUCUCAACUAUGACACGCAAAACGCGUGCUCCGUUGAAAGGAGUUUAUCAUG
GGAUCUUCUCGAUCUAACAAAAAAGACAAAUCUGCCACAAAGCUUGAGAGCAUCUUCGGAUGCAGAGCCGGCAGCCUUCGGUGGCGCGAUAGCGCCAAGGUUCUCAACUAUGACACGCAAAACGCGUGCUCCGUUGAAUGGAGUUUAUCAUG
GGAUCUUCUCGAUCUAACAAAAAAGACAAAUCUGCCACAAAGCUUGAGAGCAUCUUCGGAUGCAGAGCCGGCAGCCUUCGGUGGCGCGAUAGCGCCAAGGUUCUCAACUAUGACACGCAAAACGCGUGCUCCGUUGAAUCGAGUUUAUCAUG
GGAUCUUCUCGAUCUAACAAAAAAGACAAAUCUGCCACAAAGCUUGAGAGCAUCUUCGGAUGCAGAGCCGUCAGCCUUCGGUGGUGCGAUUUCGCCAACGUACUCAACUAUGACACGCAAAACGCGUACUCCGUUGAAUGGAGUUUAUCAUG
GGAUCUUCUCGAUCUAACAAAAAAGACAAAUCUGCCACAAAGCUUGAGAGCAUCUUCGGAUGCAGAGCCGGCAGCCUUCGGUCGCGCGAUAGCGCCAACGUUCUCAACUAUGACACGCAAAACGCGUGCUCCGUUGAAUGGAGUUUAUCAUG
GGAUCUUCUCGAUCUAACAAAAAAGACAAAUCUGCCACAAAGCUUGAGAGCAUCUUCGGAUGCAGAGCCGGCAGCCUUCGGUUGCGCGAUAACGCCAACGUACUCAACUAUGACACGCAAAACGCGUGCUCCGUUGGAUGGGGUUUAUCAUG
GGAUCUUCUCGAUCUAACAAAAAAGACAAAUCUGCCACAAAGCUUGAGAGCAUCUUCGGAUGCAGAGCCGGCAGCCUUCGGUUGCGCGAUAGCGCCAACGUUCUCAACUAUGACACGCAAAACGCGUGCUCCGUUGAAUGGAUUUUAUCAUG
GGAUCUUCUCGAUCUAACAAAAAAGACAAAUCUGCCACAAAGCUUGAGAGCAUCUUCGGAUGCAGAGCCGGCAGCCUUCGGUGAAGCGAUAGCGCCAACGUUCUCAACUAUGACACGCAAAACGCGUGCUCCGUUGAAUGGAGUUUAUCAUG
GGAUCUUCUCGAUCUAACAAAAAAGACAAAUCUGCCACAAAGCUUGAGAGCAUCUUCGGAUGCAGAGCCGGCAGCCUUCGGUGUCGCGAUAGCGCCAGCGUUCUCAACUAUGACACGCAAAACGCGUGCUCCGUUGAAUGGAGUUUAUCAUG
GGAUCUUCUCGAUCUAACAAAAAAGACAAAUCUGCCACAAAGCUUGAGAGCAUCUUCGGAUGCAGAGCCGGCAGCCUUCGGUGGCCCAAUAGCGCCAACGUUCUCAACUAUGACACGCAAAACGUGUGCUCCGUUGAAUGCAGUUUAUCAUG
GGAUCUUCUCGAUCUAACAAAAAAGACAAAUCUGCCACAAAGCUUGAGAGCAUCUUCGGAUGCAGAGCCGGCAGCCUUCGGUGGCUCGUUAGCGCAAACGUUCUCAACUUUGAUACGCAAAACGCGUGCUCCGUUGAAUGGAGUUUAUCAUG
GGAUCUUCUCGAUCUAACAAAAAAGACAAAUCUGCCACAAAGCUUGAGAGCAUCUUCGGAUGCAGAGCCGGCAGCCUUCGGUGGCGCUAUAGCGCCAACGUUCGCAACUAUGAUACGCAAAACGCGCGCUCCGUUGAAUGGAGUUUAUCAUG
GGAUCUUCUCGAUCUAACAAAAAAGACAAAUCUGCCACAAAGCUUGAGAGCAUCUUCGGAUGCAGAGCCGGCAGCCUUCGGUGGCGCGAUAACGCCAACGUUCUCAACUAUGACACGCUAAACGGGUGCUCCGUUGAAUGGAGUUUAUCAUG
GGAUCUUCUCGAUCUAACAAAAAAGACAAAUCUGCCACAAAGCUUGAGAGCAUCUUCGGAUGCAGAGCCGGCAGCCUUCGGUGGCGCGAUAUCGCCAACGUUCUCAACUAUGACACGCAAAACGCGUGCUCCGUUGAAUGGAGUUUAUCAUG
GGAUCUUCUCGAUCUAACAAAAAAGACAAAUCUGCCACAAAGCUUGAGAGCAUCUUCGGAUGCAGAGCCGGCAGCCUUCGGUGGCGCGAUAUCGCCAACGUUCUCAACUAUGACACGCAAAACGCAUGCUCCGUUGGAUGCAGUUUAUCACG
GGAUCUUCUCGAUCUAACAAAAAAGACAAAUCUGCCACAAAGCUUGAGAGCAUCUUCGGAUGCAGAGCCGGCAGCCGUCAGUGGCGCAAUAGCGCCAACGUUCUCAACUAUGACACGUAACACGCGUGCUCCGUUGAAUGGAGUUUAUCAUG
GGAUCUUCUCGAUCUAACAAAAAAGACAAAUCUGCCACAAAGCUUGAGAGCAUCUUCGGAUGCAGAGCCGGCAGCCUACGGUGGCGCGAUAGCGCCAACGUUCUCAACUAUGACACGCAAAACGCGUGCUCCGUUGAAUGGAGUUUAUCAUG
GGAUCUUCUCGAUCUAACAAAAAAGACAAAUCUGCCACAAAGCUUGAGAGCAUCUUCGGAUGCAGAGCCGGCAGCCUUCGGUGGCGCGACAGCGCUAAUGUUCUCAACUAUGAGACGCACCACGCGUGCUCCGUUGAAUGGAGUUUAUCAUG
GGAUCUUCUCGAUCUAACAAAAAAGACAAAUCUGCCACAAAGCUUGAGAGCAUCUUCGGAUGCAGAGCCGGCAGCCUUCGGUGGCGCGAUAGCGCCAACGAUCUCAACUAUGACACGCAAAACGCGUGCUCCGUUGAAUGGAAUUUAUCAUG
GGAUCUUCUCGAUCUAACAAAAAAGACAAAUCUGCCACAAAGCUUGAGAGCAUCUUCGGAUGCAGAGUCGGCGGCUUUCGGUGGCGCGAUUGCGCCAGAGUUCUCAACUAUUACACGCAAAACGCGUGCUCCGUUGAAUGGAGUUUAUCAUG
GGAUCUUCUCGAUCUAACAAAAAAGACAAAUCUGCCACAAAGCUUGAGAGCAUCUUCGGAUGCAGAGUCGGCGGCCUUCGGUGGCGUGAUAGCGCCAACGUUCUCAACUAUGACACGCAAUACGAGUGCUCCGUUGAAUGGAGUUUAUGAUG
GGAUCUUCUCGAUCUAACAAAAAAGACAAAUCUGCCACAAAGCUUGAGAGCAUCUUCGGAUGCAGAGUCGGCAGCCUUCGGUGGCGCGCUAGCGCCAACGUUCUCAACUAUGACACGCAAAACGCGUGCUCCGUUGAAUGGAGUGUAUCAUG
GGAUCUUCUCGAUCUAACAAAAAAGACAAAUCUGCCACAAAGCUUGAGAGCAUCUUCGGAUGCAGAGUUGGCAGCCUUCGGUGGCGCGAUAGCGCCAACGUGCUCAACUAUGACACGCAAAACGCGUGCUCCGUUGAAUGGAGUGUAUCAUG
GGAUCUUCUCGAUCUAACAAAAAAGACAAAUCUGCCACAAAGCUUGAGAGCAUCUUCGGAUGCAGAGUCGGCAGCCUUCGGUGGAGCGAUAGCGCCAACGUUCUCAACUAUGACACGCAAAACGCGUGCUCCGUUGAAUGGAGUUUAUCAUG
GGAUCUUCUCGAUCUAACAAAAAAGACAAAUCUGCCACAAAGCUUGAGAGCAUCUUCGGAUGCAGAGUCGGCAGCCUUCGGUGGGGCGAUAGCGCCAACGUUCUCAACUAUGACACGCAAAACGCGUGCUCCGUUGAAAGGAGUGGAUCAUG
GGAUCUUCUCGAUCUAACAAAAAAGACAAAUCUGCCACAAAGCUUGAGAGCAUCUUCGGAUGCAGAGUCGGCAGCCUUCGGUGGCGAGAUAGCGCCAACGUUCUCAACUAUGACACGCAAAACGCGUGCUCCGUUGAAUGGAGUUUAUCAUA
GGAUCUUCUCGAUCUAACAAAAAAGACAAAUCUGCCACAAAGCUUGAGAGCAUCUUCGGAUGCAGAGUCGGCAGCCUUCGGUGGCGCGAUAGAGCCAACGUUCUCAACUAUGACACGCAAAACGCGUGCUCCGUUGAAUGGAGUUUAUCAUG
GGAUCUUCUCGAUCUAACAAAAAAGACAAAUCUGCCACAAAGCUUGAGAGCAUCUUCGGAUGCAGAGUCGGCAGCCUUCGGUGGCGCGAUAGUGCCAACGUUCUCAACUAUGACACGCAAAACGCGUGCUCCGUUGAAUGGAGUUUAUCAUG
